Laboratory results taken from the supplement of paper PMC11417369.
± gives the standard deviation of the averaged measurements. Some of the results follow.

Tested on: PfAP2-LT AP2 domain (GST-tagged)
Assay: gcPBM binding intensity (ln(normalized median fluorescence intensity)); higher = stronger DNA binding
Procedure, shortened: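 Binding intensity values are the highest Masliner-normalised natural-log median intensity among replicate spots of either probe orientation. The binding step lasted 1 h in 1× PBS with 1% milk, 0.2 mg/ml BSA, 0.5% salmon testes DNA and 0.03% Triton X-100, using GST-tagged P. falciparum DNA-binding domains expressed in E. coli on an Agilent 4 × 180k array of primer-extended double-stranded 36-bp intergenic genomic probes plus negative controls. Alexa488 anti-GST antibody and a 488 nm scan detected bound protein.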

Sequence | gcPBM binding intensity (ln)
TGTATATTATAAGATAGTACATATATATAATATATA [XGTACX_site1297] | 8.57 ± 0.36
TTCATTTACCCTTATTAACACACAAAATATAATACG [CACACA_site8821] | 8.83 ± 0.34
ATAAATATCATATATATACACACGTAATACATAATA [CACACA_site4001] | 9.03 ± 0.35
AGTGAGAAATACATAATAATACATTATGTGCATATT [XGTACX_negctrl_site247] | 8.89 ± 0.49
TTACTTGTTTATTTTATTTTTTTTTTTTTTTTGTTA [TGCATGCA_negctrl_site266] | 8.45 ± 0.57
GTACACATATATATATATATATATATATATATATTA [CACACA_negctrl_site1580] | 9.82 ± 0.3
AAGAATATTTTTTTCTGTACATATAATTTATATACG [XGTACX_site5801] | 8.6 ± 0.59
ATATTAAGAATATATACACACATAAGTATTGTATAT [CACACA_site6110] | 8.88 ± 0.42
ATAAAATAAAATAAATGTACACGAAAAAAAATATTT [XGTACX_site3747] | 8.91 ± 0.49
TATTCGTGCAATAGTAGTACACTTATAAATTATTCT [XGTACX_site4899] | 8.76 ± 0.4
GTTGGTAGATTTATTTGTACATATGTATCATATTAT [XGTACX_site7135] | 9.07 ± 0.35
AAAAATTTATTTTGTTTTTTAAGATTTTTTTTTTTT [CACACA_negctrl_site1210] | 7.91 ± 0.56
AGCAAATACAAACACACACACACATATACATATATA [CACACA_site3497] | 10.1 ± 0.26
TAATTACAAAAACATACACACAAAAAAAAAAAAAAA [CACACA_site3782] | 8.87 ± 0.45
ATTCTAAATATCAGTGCACACATTTCTACGCAAAGT [CACACA_site474] | 9.12 ± 0.42
ACATACATATATATACGTACATATATATTTATATAT [XGTACX_site5799] | 9.07 ± 0.35
AAAAAACAGACATACACACACACACCCATATATATA [CACACA_site3392] | 10.4 ± 0.21
TTTGATAAAATTGATATCCTATAATTATATAAATAA [GTGCAC_negctrl_site317] | 8.17 ± 0.4
GATAAAATAAAAGTGGGTACTTAAATATATATATAA [XGTACX_site8457] | 8.69 ± 0.62
TACAATTTGATATATACACACAAATAAATTATGCTT [CACACA_site6534] | 8.76 ± 0.42
AAAAGTACAATATATATGTATGTGTATAGAATGGTT [TGCATGCA_negctrl_site76] | 9.19 ± 0.39
ATAATATTATACTTTGCACACATCTGAAATGACATA [CACACA_site3952] | 9.12 ± 0.3
AAAGAATTTAAATATTGTACGCAATATATAAAAAAA [XGTACX_site7616] | 8.57 ± 0.54
TAATATTATTATTTTACACACTTTTTTCCTTTTATC [CACACA_site2457] | 8.98 ± 0.47
TTCTATATATATATAGACAAACGATAAAATAAAAAA [GTGCAC_negctrl_site142] | 8.48 ± 0.46
TAATAATAGTGAGAGTGTACTTTAAATAAAATATAT [XGTACX_site2850] | 8.76 ± 0.56
GATGTTCATCACTACACACACAAAGAAATATAAATA [CACACA_site7294] | 9.22 ± 0.38
TACCCAAAGTTACATACACACTAATATTTACACCAT [CACACA_site4709] | 9.09 ± 0.29

Sequence | gcPBM binding intensity (ln)
ATATGAAGTTATATAGTGCACATGTACAACCAAATC [GTGCAC_site9974] | 9.19 ± 0.35
AGAAAAGAAATTAGTTGTACTCTGATGAATTATCCT [XGTACX_site6284] | 8.62 ± 0.54
TATTTATTATATAAATGTACATAATATATGTATGTC [XGTACX_site2815] | 8.77 ± 0.48
AAAAAAAAAAAAAGTACACACTTTTGCGTACAAGTA [CACACA_site5672] | 8.79 ± 0.47
TATATCATAAAAAATTGTACATATATATATTATATA [XGTACX_site6726] | 8.44 ± 0.41
TGATGGGACATAAATATTGAGATGATCATAAGATAA [TGCATGCA_negctrl_site276] | 8.89 ± 0.6
AAAGATAATATATGCACACATATAAATATATAAATA [CACACA_site3477] | 9.07 ± 0.43
TGACTTTTTTTTTTTTTTTTTTTTTTTTATCTTTTT [CACACA_negctrl_site481] | 8.49 ± 0.58
TTATGATTATAACGTTTTGACATTAGGCATATATAT [CACACA_negctrl_site1396] | 8.72 ± 0.47
CAGTTATTTTAATGTGGTACACAATTTTAAAATTAT [XGTACX_site8571] | 8.53 ± 0.39
AAGAAAAAAAAAAAAAAAAAAAAAAAAAATTTATGA [TGCATGCA_negctrl_site294] | 8.18 ± 0.64
AAATATAATTTGCGATGTACACATATATATTTATTT [XGTACX_site1568] | 8.87 ± 0.41
TGAAATGATATATAAACACACATATATAAATATGTA [CACACA_site7616] | 8.88 ± 0.45
TACCTATACCTATACACACACACACGGAAATAAATA [CACACA_site6750] | 9.84 ± 0.32
ATATAAAATGAACATAGTACTTTTTATATATTTTAA [XGTACX_site7461] | 8.32 ± 0.47
AATTTTATAAAAAGTAGTACATATCAAACACCTTGA [XGTACX_site2297] | 8.71 ± 0.38
AATGTGCCCACGCGTACACACAAAAAAAGAAAAAAA [CACACA_site2003] | 9.02 ± 0.59
TTTTAAAAAAAAAAAAAAAAAATTAAAATAATTCAA [TGCATGCA_negctrl_site69] | 7.83 ± 0.47
ATAAAATAATTAATGGGTACATAATTAAATAAAGAG [XGTACX_site3309] | 8.86 ± 0.61
CATACATAGAAACACACACACACACCCACCCACAAA [CACACA_site494] | 10.19 ± 0.028
ATTCTATATTTAAATGCATGCACTTTCTATTTTTTT [TGCATGCA_site435] | 9.38 ± 0.47
TTTAATTTGTTATACACACACAAAAAAAATTATAAA [CACACA_site3937] | 8.93 ± 0.46
GCTAAAAGTATATGCACACACATATAGATGCACATA [CACACA_site6868] | 9.34 ± 0.33
TTTTATTTATCTAATTGTACTCATTCTTTTTTGATG [XGTACX_site2876] | 8.72 ± 0.59
GACACTTTGAAGGGTACATGCAGAAAAAAAAAAAAA [TGCATGCA_site89] | 8.7 ± 0.55
AATACAATTTTTAACACACACACAATAATACAGATA [CACACA_site4823] | 9.61 ± 0.21
GTGTAATTTATTGTGTTGCACTTTTTTTTTTTTTTT [GTGCAC_site9644] | 8.88 ± 0.49
